Assay [1] concerns the target T1, cynomolgus monkey BCMA-His (ACRO, catalog No. BCA-052H7) (cynomolgus monkey, UniProt A0A2K5UD97 1-53).
T1 construct: Bought (ACRO); also called cynomolgus monkey BCMA protein; not shown: His tag
As to the kind of experiment: SPR (Biacore T200), antibody captured by anti-hIgG (Fc), cynomolgus BCMA-His as analyte, Langmuir 1:1. As for the experimental part: (§1) The anti-human BCMA VHH-Fc chimeric antibodies were tested for affinity using a biomolecular interaction analysis system (GE, Biacore T200). An anti-hIgG (Fc) antibody (GE, product catalog No. BR-1008-39) was amino-coupled to a CM5 sensor chip. The anti-human BCMA VHH-Fc chimeric antibodies were diluted to 1 μg/mL with a running buffer (137 mM Nacl, 2.7 mM KCl, 10 mM Na₂HPO₄·12H₂O, 1.8 mM KH₂PO₄, 0.05% surfactant P-20 (w/v), pH 7.4), and capture was allowed by passing the dilutions through experimental channels at a flow rate of 30 μL/min. Human BCMA-His (ACRO, product catalog No. BCA-H522y) or cynomolgus monkey BCMA-His (ACRO, catalog No. BCA-052H7) was diluted with the running buffer to 100 nM, 50 nM, 25 nM, 12.5 nmol/L, 6.25 nM and 3.125 nM, and binding was allowed for 200 s by passing the dilutions at a flow rate of 50 μL/min. Then dissociation was allowed for 800 s by stopping sample injection. The data signals were collected by BiaControl Software 2.0 in real time, and analyzed by BiaEvaluation Software 2.0. Fitting was performed using a Langmuir 1:1 model, and the binding rate constant Ka (l/Ms), the dissociation rate constant Kd (l/s) and the equilibrium constant KD (M) were calculated. 1A1-Fc, 1A10-Fc, 1A11-Fc and 1B10-Fc all have relatively high affinity for human BCMA protein. There were cross-reactions of 1A10-Fc and 1A11-Fc with cynomolgus monkey BCMA protein.
Background: Surface plasmon resonance follows binding to a sensor surface in real time, without labels.

Assay [2] concerns the target T2, human BCMA-His protein (ACRO, product catalog No. BCA-H522y) (human, UniProt Q02223 1-54, biotin-conjugated in the competition ELISAs of Examples 5 and 6.1 (sites not given)).
T2 construct: Bought (ACRO BCA-H522y); also called recombinant BCMA-His protein; biotin-conjugated BCMA-His; not shown: His tag
T2 sequence (looked up): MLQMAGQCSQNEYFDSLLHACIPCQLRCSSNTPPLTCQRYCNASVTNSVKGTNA
As to the kind of experiment: SPR (Biacore T200), antibody captured by anti-hIgG (Fc), human BCMA-His as analyte, Langmuir 1:1. As for the experimental part:
as §1

Assay [3] addresses T2, human BCMA-His protein (ACRO, product …). As to the kind of experiment: indirect ELISA, human BCMA-His coated at 2 ug/mL. As for the experimental part:
2 μg/mL human BCMA-His protein (ACRO, product catalog No. BCA-H522y) was allowed to coat a high-adsorption microplate, and then the plate was blocked with 3% (w/v) BSA blocking buffer. […] The plate was incubated at 37° C. for 1 h. After the plated was washed, an HRP-conjugated anti-human IgG Fc tag secondary antibody (PerkinElmer, product catalog No. NEF802001EA) was added. The plate was incubated at 37° C. for 0.5 h and then washed 5 times, and a TMB substrate solution (TIANGEN, product catalog No. PA107) was added at 100 μL/well for color development. The light absorption signal values at the wavelength of 450 nm and the reference wavelength of 650 nm were measured. A curve (FIG. 1) was fit, and the EC₅₀ values (Table 1) were calculated.
For orientation: ELISA stands for enzyme-linked immunosorbent assay.

Assay [4] has as its target T1, cynomolgus monkey BCMA-His (ACRO, …). As to the kind of experiment: SPR (Biacore T200), antibody captured by anti-hIgG (Fc), cynomolgus BCMA-His as analyte. Here is the method:
as §1

T1 sequence (A0A2K5UD97 entry or part of it): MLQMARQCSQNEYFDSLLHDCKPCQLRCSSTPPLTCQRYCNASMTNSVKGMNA

B1: 1A10-Fc (Fc fusion)
chain: QVQLVESGGGSVQAGGSLRLSCAASGYSSNVACMAWYRQAPGKEREWVATIVADFGTTNYAASVKGRFTISQDNAKNTVYLQMNSLKPEDSAMYYCAATQRGGIDWCDEINYWGQGTLVTVSS[human IgG1 Fc not spelt out]
notes: also called anti-human BCMA VHH-Fc chimeric antibody 1A10-Fc
Usually Kd stands for the constant that tells how readily two partners part at equilibrium. What is called koff is the first-order rate constant of dissociation. In general, kon refers to a measure of how fast the partners come together. The term EC50 denotes the midpoint of the concentration-response curve. For the molecule B1, in assay [1], the affinity, expressed as Kd, was 23.3 nM; the off-rate (koff) turned out to be 0.0294 s⁻¹; the kon was found to be 1.26e+06 M⁻¹ s⁻¹. In assay [2], this molecule displayed a Kd of 0.313 nM, a dissociation rate constant (koff) of 0.000476 s⁻¹ and an on-rate constant (kon) of 1.52e+06 M⁻¹ s⁻¹. In addition, in assay [3], the EC50 is 0.15 nM.

B2: 1A11-Fc (Fc fusion)
chain: QVQLVESGGGSVQAGGSLRLSCAASGVTFNSACMGWFRQAPGKEREGVARIETGYGGTVYADSVKGRFTISRDNAKNTVYLQMNSLKPEDTAMYYCAAKRSWCTPTWWHELDYNYWGQGTQVTVSS[human IgG1 Fc not spelt out]
notes: also called anti-human BCMA VHH-Fc chimeric antibody 1A11-Fc
B2: in assay [1], the equilibrium dissociation constant (Kd) stood at 96.1 nM, the koff came to 0.0631 s⁻¹ and the association rate constant (kon) came to 657000 M⁻¹ s⁻¹. Besides, in assay [2], the Kd was 0.812 nM, the off-rate (koff) was found to be 0.00141 s⁻¹ and the kon was 1.74e+06 M⁻¹ s⁻¹. Besides, the EC50 in assay [3] is 0.21 nM.

B3: 1A1-Fc (Fc fusion)
chain: QVQLVESGGGSVQAGGSLRLSCTASGYTFRGWNKHWYRQAPGKERELVSSIFRDGKTAYTDSVKGRFTISQDNADATVYLQMNSLKPEDTAMYYCKYDLPGSGLPAFWGQGTLVTVSS[human IgG1 Fc not spelt out]
notes: also called anti-human BCMA VHH-Fc chimeric antibody 1A1-Fc
For the molecule B3, in assay [2], the dissociation constant (Kd) came to 0.649 nM, the koff is 0.000742 s⁻¹ and the kon came to 1.14e+06 M⁻¹ s⁻¹. Also, a half-maximal response in assay [3] (EC50) required 0.069 nM. In addition, the binding result in assay [4] is listed as “no binding (tested: 100 nM highest concentration)”.

B4: 1B10-Fc (Fc fusion)
chain: EVQLVESGGGSVQAGGSLRLSCTASGYTFRGWNKHWYRQAPGKERELVSSIFRDGKTAYTDSVKGRFTISQDSADATVYLQMNSLKPEDTAMYYCKYDLPGSGLPEFWGQGTLVTVSS[human IgG1 Fc not spelt out]
notes: also called anti-human BCMA VHH-Fc chimeric antibody 1B10-Fc
As to B4, in assay [2], binding was characterised by a dissociation constant (Kd) of 0.129 nM, the off-rate (koff) was determined as 0.000198 s⁻¹ and the on-rate (kon) amounted to 1.53e+06 M⁻¹ s⁻¹. The same molecule yielded a concentration for a half-maximal effect (EC50) in assay [3] of 0.131 nM. Further, the binding result in assay [4] was “no binding (tested: 100 nM highest concentration)”.

The record behind these values is patent publication US20230265181A1 (CHIA TAI TIANQING PHARMACEUTICAL GROUP, published 2023).
